{"source": "paper PMC6919601", "about": "“Identification of Plasmodium dipeptidyl aminopeptidase allosteric inhibitors by high throughput screening” (PLoS ONE, 2019)", "note": "Several values for one entry are separate records, joined by “and”; a condition that tells them apart may be missing. Equal values may be shown once. Out of some 110,000 compounds screened, about 230 (0.21%) showed an effect of 50% or more. Some of the results follow.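 Further: 30 min substrate incubation versus DMSO and 10 µM JCP410 controls.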", "data": [{"target": "DPAP1 (Plasmodium falciparum, UniProt Q8IIJ9)", "sequence (Q8IIJ9 whole entry, looked up)": "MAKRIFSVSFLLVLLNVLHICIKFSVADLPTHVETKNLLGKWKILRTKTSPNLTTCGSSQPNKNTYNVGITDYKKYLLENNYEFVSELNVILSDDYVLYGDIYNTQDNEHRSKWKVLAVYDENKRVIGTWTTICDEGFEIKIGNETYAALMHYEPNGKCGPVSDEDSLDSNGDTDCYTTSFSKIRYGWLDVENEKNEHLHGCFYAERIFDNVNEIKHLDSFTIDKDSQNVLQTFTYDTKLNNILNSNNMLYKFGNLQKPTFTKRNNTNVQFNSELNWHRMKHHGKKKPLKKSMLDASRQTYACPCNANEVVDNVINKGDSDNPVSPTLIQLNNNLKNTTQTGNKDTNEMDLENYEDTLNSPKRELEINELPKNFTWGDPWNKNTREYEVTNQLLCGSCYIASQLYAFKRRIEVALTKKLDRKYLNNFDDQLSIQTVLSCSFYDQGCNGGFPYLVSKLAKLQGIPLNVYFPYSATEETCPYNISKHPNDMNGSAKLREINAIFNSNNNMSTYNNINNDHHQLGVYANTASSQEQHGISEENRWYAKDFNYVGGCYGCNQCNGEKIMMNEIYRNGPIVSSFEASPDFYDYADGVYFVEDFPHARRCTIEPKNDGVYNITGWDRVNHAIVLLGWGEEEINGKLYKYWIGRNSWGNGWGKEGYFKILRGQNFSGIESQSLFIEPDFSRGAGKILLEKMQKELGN", "assay": "primary screen, percent inhibition; read by cleavage of a fluorogenic dipeptide substrate; higher = more effect of the substance", "set-up": "species or system P. falciparum D10 trophozoite lysates; single well", "values": [{"smiles": "COc1ccccc1-c1c(C)nn2c(SCC(=O)N3CCN(C)CC3)cc(C)nc12", "% Inhibition @ 10 uM": "3.29%"}, {"smiles": "Clc1ccc(-n2ncnc2-c2ccccn2)cc1", "% Inhibition @ 10 uM": "2.05%"}, {"smiles": "C[C@@H](CC(NC(=O)c1ccc(-c2ccccc2Cl)cc1)C(=O)N[C@H]1CCOC1(O)c1nc2ccccc2o1)c1ccccc1", "note": "(some centres unmarked)", "% Inhibition @ 10 uM": "-0.207%"}, {"smiles": "O=C(C1CCCO1)N1CCN(c2cccc(C(F)(F)F)c2)CC1", "note": "(centres unmarked)", "% Inhibition @ 10 uM": "-3.18%"}, {"smiles": "COc1ccc(/C=C2/SC(N3CCCCC3)=NC2=O)cc1", "% Inhibition @ 10 uM": "3.69%"}, {"smiles": "Cn1c(=O)c2cnc(-c3ccccc3)nc2n(C)c1=O", "% Inhibition @ 10 uM": "-3.53%"}, {"smiles": "O=C(Cc1ccccc1)NCC1CCCO1", "note": "(centres unmarked)", "% Inhibition @ 10 uM": "0.273%"}, {"smiles": "O=C(/C=C/c1ccc2ccccc2n1)c1cccnc1", "% Inhibition @ 10 uM": "-0.292%"}, {"smiles": "CCCCCn1c(CCCNC(=O)c2ccco2)nc2ccccc21", "% Inhibition @ 10 uM": "-4.82%"}, {"smiles": "COCCN1C(=O)c2[nH]nc(-c3ccccc3O)c2C1c1cccc(Br)c1", "note": "(centres unmarked)", "% Inhibition @ 10 uM": "2.02%"}, {"smiles": "CN(C)CCCN(C(=O)CN1C(=O)CCC1=O)c1nc2c(F)cc(F)cc2s1", "% Inhibition @ 10 uM": "3.48%"}, {"smiles": "Cc1ccc(NC(=O)c2sc3nc(N)c(C#N)cc3c2N)cc1", "% Inhibition @ 10 uM": "-2.81%"}, {"smiles": "Cc1ccc2oc(=O)c3cc(C(=O)N(C)Cc4ccccc4)sc3c2c1", "% Inhibition @ 10 uM": "4.68%"}, {"smiles": "Cc1ccc2onc(CNC(=O)NCC3CCCO3)c2c1", "note": "(centres unmarked)", "% Inhibition @ 10 uM": "0.0147%"}, {"smiles": "O=C1OC(c2ccc(Br)cc2)=N/C1=C\\c1coc2c(Cl)cc(Cl)cc2c1=O", "% Inhibition @ 10 uM": "7.89%"}, {"smiles": "CC1(C)CCCC(C)(C)N1CC(O)COc1ccccc1", "note": "(centres unmarked)", "% Inhibition @ 10 uM": "-8.28%"}, {"smiles": "CC(=O)c1ccc(NC(=O)c2cc3nc(-c4ccc5c(c4)OCO5)cc(C(F)(F)F)n3n2)cc1", "% Inhibition @ 10 uM": "-5.98%"}, {"smiles": "CC(C)C1Cc2c(sc3nc(SCc4ccccc4)nc(N)c23)CO1", "note": "(centres unmarked)", "% Inhibition @ 10 uM": "-1.52%"}, {"smiles": "CC1CCN(S(=O)(=O)N2CCC(C(=O)NCCCN3CCCC3)CC2)CC1", "% Inhibition @ 10 uM": "-3.12%"}, {"smiles": "COc1ccc2c(CNCCc3ccccc3)c(C(=O)O)[nH]c2c1", "% Inhibition @ 10 uM": "-5.37%"}, {"smiles": "CCOC(=O)c1c(NC(=O)c2c(Br)cnn2C)c(C#N)nn1-c1ccccc1", "% Inhibition @ 10 uM": "-3.41%"}, {"smiles": "Cc1nc2nc(-c3ccc(Cl)cc3Cl)nn2c(C)c1CCC(=O)NCc1ccco1", "% Inhibition @ 10 uM": "-6.09%"}, {"smiles": "COc1ccc(-c2ncnn2-c2ccncc2)cc1", "% Inhibition @ 10 uM": "-0.0953%"}, {"smiles": "CN(C)c1nc(N(C)C)nc(N2CC(=O)N(c3ccccc3)C2=N)n1", "% Inhibition @ 10 uM": "-7.31%"}, {"smiles": "C=C(Br)C[C@H](NC(=O)OC(C)(C)C)C(=O)NCC#N", "% Inhibition @ 10 uM": "-3.04%"}, {"smiles": "Cc1cccc(NC(=O)CC(=O)c2ccc([N+](=O)[O-])cc2)c1", "% Inhibition @ 10 uM": "-11.1%"}, {"smiles": "C=CCO/C(O)=C1/C(C)=Nc2ncnn2C1c1ccc(OC)c(OC)c1", "note": "(centres unmarked)", "% Inhibition @ 10 uM": "3.32%"}, {"smiles": "O=C(O)CCC(=O)Nc1ccc(N2CCN(c3ccccc3)CC2)cc1", "% Inhibition @ 10 uM": "0.245%"}, {"smiles": "CCc1cccc(NC(=O)c2c(-c3ccccc3)noc2C)c1", "% Inhibition @ 10 uM": "1.57%"}, {"smiles": "Cc1cc(C)cc(-n2nnc(-c3nc(-c4cccnc4)no3)c2N)c1", "% Inhibition @ 10 uM": "1.4%"}, {"smiles": "c1cnc2c(Oc3ncnc4sc5c(c34)CCCC5)cccc2c1", "% Inhibition @ 10 uM": "2.86%"}, {"smiles": "Cc1cccnc1Nc1nc(-c2ccncc2)cs1", "% Inhibition @ 10 uM": "-1.69%"}, {"smiles": "O=S(=O)(NCCN1CCCC1)c1cccc2nsnc12", "% Inhibition @ 10 uM": "1.9%"}, {"smiles": "COc1ccc(S(=O)(=O)N(CC(=O)Nc2ccccc2C(N)=O)c2ccccc2)cc1", "% Inhibition @ 10 uM": "-4.61% and -4.12%"}, {"smiles": "CCC(C)Sc1nc(O)cc(=O)n1C", "note": "(centres unmarked)", "% Inhibition @ 10 uM": "1.91%"}, {"smiles": "COC(=O)/C(=C\\c1c[nH]c2ccccc12)NC(C)=O", "% Inhibition @ 10 uM": "-3.58%"}, {"smiles": "Oc1ccc(Nc2ccc(O)cc2)cc1", "% Inhibition @ 10 uM": "-0.999%"}, {"smiles": "COc1cc(OC)cc(-n2cc(-c3cc4ccccc4oc3=O)nc2S)c1", "% Inhibition @ 10 uM": "46.4%"}, {"smiles": "CCOC(=O)N1CCN(C(=O)CSc2nnc(CNC(=O)c3ccc(OC)cc3)o2)CC1", "% Inhibition @ 10 uM": "4.36%"}, {"smiles": "C/C(=C1\\C(=O)N(c2nc3ccccc3s2)N=C1C(F)(F)F)N1CCC2CCCN2C1", "note": "(centres unmarked)", "% Inhibition @ 10 uM": "4.32%"}, {"smiles": "CC(=O)Nc1ccc(S(=O)(=O)Nc2c(C)cccc2C(C)C)cc1", "% Inhibition @ 10 uM": "-1.61%"}, {"smiles": "CC1CCCC(N2CCCN(C)CC2)C1", "note": "(centres unmarked)", "% Inhibition @ 10 uM": "2.1%"}, {"smiles": "O=C1c2ccccc2C(=O)C1(c1ccccc1)N1CCc2ccccc2C1", "% Inhibition @ 10 uM": "4.36%"}, {"smiles": "COc1ccccc1NCc1c(C#N)c2ccccc2n1C", "% Inhibition @ 10 uM": "-0.864%"}, {"smiles": "O=C1c2cc(S(=O)(=O)NCCCO)ccc2-c2ccc(S(=O)(=O)NCCCO)cc21", "% Inhibition @ 10 uM": "-1.47%"}, {"smiles": "CCOc1ccc(Br)cc1C1C(C(C)=O)=C(C)Nc2nnnn21", "note": "(centres unmarked)", "% Inhibition @ 10 uM": "-5.41%"}, {"smiles": "Cc1ccc(-c2c(NCCc3ccc(Cl)cc3)c(=O)c2=O)cc1", "% Inhibition @ 10 uM": "1.97%"}, {"smiles": "O=C1CCCC(O)=C1Sc1ccccc1C(=O)O", "% Inhibition @ 10 uM": "5.07%"}, {"smiles": "Cc1ccc(C(=O)Nc2cccc(OCC(=O)c3ccccc3)c2)cc1", "% Inhibition @ 10 uM": "-1.11%"}, {"smiles": "Cc1ccc(-c2ccc(/C=C3\\NC(=O)NC3=O)o2)c(Br)c1", "% Inhibition @ 10 uM": "4.74%"}]}]}
